Drawing on the RNAGym collection of RNA variant scans (doi:10.1101/gad.245936.114), this text covers nonsense suppression for 27 variants.

Variants at the background level are over-represented here. A value given as a limit tells only on which side of the number the result lay.

Sequences and labels used below:
B1: tRNA (parent)
chain: CUCUCGGUAGCCAAGUUGGUUUAAGGCGCAAGACUUUAAUUUAUCACUACGAAAUCUUGAGAUCGGGCGUUCGACUCGCCCCCGGGAGAUUUUUUCCUCGAGCAA

The series covers variants of B1. In words: nonsense suppression (GFP-seq) (ratio to wild type); higher = more function; SUP4oc tRNA, yeast GFP reporter sort-seq. The essentials:
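Yeast were grown in raffinose/galactose medium with 80 mg/L adenine, each strain bearing a genome-integrated ochre-suppressor tRNA variant from a ~3% random-mutation library, a galactose-driven GFP ochre reporter, and RFP. After sorting into GFP/RFP bins, every bin was sequenced on an Illumina platform at phred ≥30. The GFPSEQ value, a measure of nonsense suppression, is the weighted bin median GFP/RFP relative to the unmutated parent tRNA, using each variant's estimated cell share per bin as the weight. Only variants with ≥100 reads and ≥30 cells were included.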
For the variant CUCUCGGUAUCCAAGUUGGUUUAAGGCGCAAGACUUUAAUUUAUCACUACGAAAUCAUGCGAUCGGGCGUUCGACUCGCCCCCGGGAGAUUUUUUCCUCGAGCAA [G10U U57A A60C], the nonsense suppression is no more than 0.026.
For CUCUCGGUAGCCAAGUUCGUUUAAGGCGCACGACUUUAAUUUAUCACUACGAAAUCCUGAGAUCGGGCGUUCGACUCGCCCCCGGGAGAUUUUUUCCUCGAGCAA [G18C A31C U57C], the nonsense suppression was no more than 0.026.
On to CUCUAGGUAGCCAAGUUGGUUUAAGGCGGAAGACUUUAAUUUAUCACUACGAAAUCUUGAGAUCGGGCGUUCGACUCGCGCCCGGGAGAUUUUUUCCUCGAGCAA [C5A C29G C80G], for which the nonsense suppression was no more than 0.026.
Next, CUCUCGGUAGCCAAGGUGGUUUAAGGCGCAAGACUUUAAUUUAUCACUACGAAAUCGCGAGAUCGUGCGUUCGACUAGCCCCCGGGAGAUUUUUUCCUCGAGCAA [U16G U57G U58C G66U C77A]: no more than 0.026.
Consider CUCUGGGUAGCCAAGUUGGUUUAAGGCGCAAGACUUUAAUUUAUCACUACGAAGUCUUGAGAUCGGGCGUUCGACUCGCCCCCGGGAGAUUUUUUCCUCGAGCAA [C5G A54G], for which the nonsense suppression was no more than 0.026.
To CUCUCGGUAGCCAUGUUGGUUUAAUGCGCAAGACUUUAAUUUAUCACUACGAAAUCUUGAGAUCGGGCGUUCGACUCGCCCCCGGCAGAUUUUUUCCUCGAGCAA [A14U G25U G86C] belongs no more than 0.026; to CUCUCGGUAGCCAAGUUGGUUUAAGGCGCGGGACUUUAAUUUAUCACUACGAAAUCUUGUGAUCGGGCGUUCGACUCGCCCCCGGGAGAUUUUUUCCUCGAGCAA [A30G A31G A60U], 0.726; to GUCUCGGUAGCCAAGUUGGUUUAAGGCGCAAGACUUUAAUUUAUCACUACGAAGUCUUGAGAUCGGGCGUUCGACUCGCCCCCGGGAGAUUUUUUCCUCGAGCAA [C1G A54G], no more than 0.026.
To CUCUCGGUAGCCAAGUUGGUUUAAGGGGCAAGACUUUAAUUUAUCACUACGAAAUCUUGAGAUCCGGCGUUCGGCUCGCCCCCGGGGGAUUUUUUCCUCGAGCAA [C27G G65C A74G A87G] belongs no more than 0.026.
On to CUCUCGGUAGCCAAGUUGGUUUAAGGCGCAAGACUUUAAUUUAUCACUACGAAAUCUUGAGAUCGGUCGUUCGACUCGCCCACGGGAGAUUUUUUCCUCGAGCAA [G67U C82A], for which the nonsense suppression was no more than 0.026.
Next, CUCUCGGUAGCCCAGUUGGUUUAAGGCGCAAGACUUUAAUUUAUCACUACGAAAUCUUGAGAUCGGGUGUUCGACUCGCCCCCGGGAGAUUUUUUCCUCGAGCAA [A13C C68U]: 0.836.
To CUCUCGGUAGCCAAGUUGGUUUAAGGCGCAAGACUUUAAUUUAUCACUACGAAAUCUUGAGAUCGGCCGUUCGACUCGCCCUCGGGAGAUUUUUUCCUCGAGCAA [G67C C82U] belongs no more than 0.026; to CUCUCGGUAGCCAAGUUGGUUUAAGGCGCAAGAACUUAAUUUAUCACUACGAAAUCUUGAGAUCGGGCAUCCGACUCGCCCCCGGGAGAUUUUUUCCUCGAGCAA [C34A U35C G69A U71C], no more than 0.026; to CUCUCGGUAGCCAAGUUGGUUUAGGGCGCAAGACUUUAAUUUAUCACUACGAAAUCUUGAGAUCGGGCGUUUGAGUCGCCCCCGGGAGAUUUUUUCCUCGAGCAA [A24G C72U C75G], no more than 0.026.
To CUCUCGUUAGCCAAGUUGGUUUAAGGCGCAAUACUUUAAUUUAUCACUACGAAAACUUGAGAACGGGCGUUCGACUCGCCCCCGGGAGAUUUUUUCCUCGAGCAA [G7U G32U U55A U63A] belongs no more than 0.026.
Regarding CUCUCGGUAGCCAAGUUGGUUUAAGGCGCAAGACUUUAAUUUAUCACUACGAAAUCUUCAGAUAUGGCGGUCGACUCACCGCCGGGAGUUUUUUUCCUCGAGCAA [G59C C64A G65U U70G G78A C81G A89U], the nonsense suppression is no more than 0.026.
Next, CUCUCGGUAGCCAAGUUCGUUUAAGGCACAAGACUUUAAUUUAUCACUACGAAAUCUUGAGAUCGGGCGUUCGAGUCGCCCCCGGGAGAUUUUUUCCUCGAGCAA [G18C G28A C75G]: no more than 0.026; CUCUCGGUAGCCAAGAUGGUUUAAGGCGCAAGACUUUAAUUUAUCACUACGAAAUCUUGAGAUCGGGCGUUCGACUCGCCCUCGGGAGAUUUUUUCCUCGAGCAA [U16A C82U]: 0.886.
On to CUCUCGGUAGCCAAGUUGGUUUAAGGCCCAAGCCUUUAAUUUAUCACUACGAAAUCUUGAGAUCGGGCGUUCGACUCGCCCCCGGGAGAUUUUUUCCUCGAGCAA [G28C A33C], for which the nonsense suppression was no more than 0.026.
Regarding CCCGCGGUAGCCAAGUAGGUUUAAGGCGCAAGACUUUAAUUUAUCACUACGAAAUCUUGAGAUCGGGCGUUCGACUCGCCCCCGGGGAAUUUUUUCCUCGAGCAA [U2C U4G U17A A87G G88A], the nonsense suppression was no more than 0.026.
As to CUCUCGGUAGCCAAGUUGGUUUAAGGCGCAAGAUUUUAAUUUAUCACUACGAAAUCUUGAGAUCGGGCGUUCGACUCGCCCCCGGGAGAUUUUUUCCUCGAGCAA [C34U], the nonsense suppression is no more than 0.026.
In the case of CUCUCGGUAGCAAAGUUGUUUUAAGGCGCAAGACUUUAAUUUAUCACUACGAAAUCUUGUGAUCGGGCGUUCGACUCGCCCCCGGGAGAUUUUUUCCUCGAGCAA [C12A G19U A60U], the nonsense suppression was no more than 0.026.
As to CUCUCGGUAGCCAAGUUGGUUUAAGUCGCAAGACUUUAAUUUAUCACUACGAAAUCUUGAGAUCGGGCGUUCGACUCGCCCCCGGGAUAUUUUUUCCUCGAGCAA [G26U G88U], the nonsense suppression is no more than 0.026.
As for CUCUCGGUAGCCAAGUUGGUUUAAGGCGCAAGACUUUAAUUUAUCACUACGAAAUCUUGAAAUCGGGCGUUCGACCCGCCCCCGGGAGAUUUUUUCCUCGAGCAA [G61A U76C], the nonsense suppression is 0.775.
As to UUCUCGGUAGCCAAGUUGUUUUAAGGCCCAAGACUUUAAUUUAUCACUACGAAAUCCUGAGAUCGGGCGUUCGACUCGCCCCCAGGAGAUUUUUUCCUCGAGCAA [C1U G19U G28C U57C G84A], the nonsense suppression was no more than 0.026.
Turning to CUCUCGGCUGCCAGGUUGGUUUAAGGCGCAAGACUUUAAUUUAUCACUACGAAAUCUUGAGAUCGGGCGUUCGACUCGCCCCCGUGAGAUUUUUUCCUCGAGCAA [U8C A9U A14G G85U], the nonsense suppression is no more than 0.026.
To CUCUCGGUAGCCAAGUUGGUUUAAGGCGCAAGACUUUAAUUUAUCACUACGAAAUCAUGAGAUCGGACGUUCGACUCGCCCCCGGGAGAUUUUUUCCUCGAGCAA [U57A G67A] belongs no more than 0.026.
